Experimental data taken from paper PMC5606850, “Acidic C-terminal domains autoregulate the RNA chaperone Hfq” (eLife, 2017).
“And” between values parts separate entries of the source, which are not always exact repeats. Identical values can stand only once.

B1: E. coli Hfq65 (Hfq core; truncated variant lacking the CTD) (domain or fragment)
chain: not shown
notes: Untagged; Forms a homohexameric ring; also called core Hfq; Hfq65 core
B2: E. coli Hfq65-Q35A (domain or fragment)
chain: not shown
notes: Hfq, E. coli, core […], mutation Q35A; Untagged; made by site-directed mutagenesis of pET21b-Hfq
B3: E. coli Hfq65-R19D (domain or fragment)
chain: not shown
notes: Hfq, E. coli, core […], rim mutation R19D; Untagged; made by site-directed mutagenesis of pET21b-Hfq
B4: E. coli Hfq65-R16A (domain or fragment)
chain: not shown
notes: Hfq, E. coli, core […], rim mutation R16A; Untagged; made by site-directed mutagenesis of pET21b-Hfq
B5: E. coli Hfq65-K47A (domain or fragment)
chain: not shown
notes: Hfq, E. coli, core […], rim mutation K47A; Untagged; made by site-directed mutagenesis of pET21b-Hfq
B6: E. coli Hfq102-R16A (natural protein)
chain: not shown
notes: probably made as Hfq102; source: purified Hfq protein
B7: E. coli Hfq-sCTD (Hfq with shortened CTD linker, lacks residues 86-96) (natural protein)
chain: not shown
notes: Hfq, E. coli, full-length background (Hfq102) with the linker residues 86-96 (inclusive) deleted; Untagged; also called Hfq102-sCTD

Biological target: the molecule itself
Assay: SDS-PAGE of SDS-stable oligomers; ~2.8 µg purified Hfq protein, prepared in 2% SDS and boiled, 4–20% SDS-PAGE, Coomassie blue

Row | Protein | stoichiometry N
1 | B1 | 6
2 | B2 | 6
3 | B3 | 6
4 | B4 | 6
5 | B5 | 6
6 | B6 | 6
7 | B7 | 12 and 6
